The whole screen tested about 52,000 compounds, of which about 4,300 (8.3%) were called active. Rule as the data show it: active = survival mostly below about 52% (no sharp cut-off); inactive = mostly above about 56%. The list shows a part of the results.
System: DeltatarO mutant
Assay: growth inhibition of S. aureus wild type versus tarO mutant, primary screen, teichoic acid synthesis inhibitors, RN4220, OD600 (AID 463173)
Conditions: OD600, 18 h, hits give low values, screened at 18.75 µg/mL (by protocol)

Row | SMILES | survival
1 | Cc1ccc(Cl)cc1NC(=O)Cn1c(=O)n(Cc2ccccc2)c(=O)c2oc3ccccc3c21 | inactive: 81%
2 | Cc1ccc(CCNC(=O)CCCn2c(=O)c3ccccc3n(Cc3ccccc3C#N)c2=O)cc1 | inactive: 90%
3 | CCn1cc2c(n1)-c1c(oc(C(=O)Nc3cccc(C)c3C)c1C)CC2 | inactive: 95%
4 | Cc1ccc(CNC(=O)CCc2c(C)nc3nc(C)nn3c2C)cc1 | inactive: 103%
5 | N#Cc1c(C(F)(F)F)cc(-c2cccs2)nc1SCC(=O)Nc1ccccc1F | inactive: 145%
6 | CCc1ccc(O)c(C(=O)c2cnc3cc(-c4ccc(C)cc4)nn3c2)c1 | inactive: 89%
7 | Cc1cc(C)cc(NC(=O)CSc2oc(-c3ccccc3)nc2S(=O)(=O)c2ccccc2)c1 | inactive: 143%
8 | O=C(c1ccc2c(c1)N(Cc1ccccc1F)C(=O)c1ccccc1S2(=O)=O)N1CCN(c2ccccc2F)CC1 | inactive: 94%
9 | CNS(=O)(=O)c1ccccc1C(=O)N/N=C/c1ccc(OC)c(OC)c1 | inactive: 76%
10 | CCN(CC)C(=O)c1sc2c(c1C)c(=O)n(CCc1ccccc1)c(=O)n2Cc1ccc(F)cc1Cl | inactive: 89%
11 | COc1cc(OC)c(OC)cc1/C=C/c1nc2cc3ccccc3cc2c(=O)n1-c1ccc(F)c(Cl)c1 | inactive: 79%
12 | O=C(c1cc(-c2ccccc2O)on1)N1CCCCC1 | active: 40%
13 | CCc1c(C)nc(SCc2nc(-c3ccccc3)no2)[nH]c1=O | inactive: 112%
14 | O=S(=O)(c1ccc2c(c1)Cc1ccccc1-2)N1CCOCC1 | inactive: 113%
15 | O=C(c1ccccc1)c1ccc2nc(-c3ccco3)c(-c3ccco3)nc2c1 | inactive: 90%
16 | O=C(CSCc1ccc(F)cc1)N1CCN(c2ccc(Cl)cc2)CC1 | inactive: 95%
17 | Clc1ccc(CN2CCC(CNc3ncnc4onc(-c5ccc(Cl)cc5)c34)CC2)cc1 | inactive: 50%
18 | COc1ccc(C2=C/C(=C/c3ccco3)C(=O)O2)cc1 | inactive: 105%
19 | Cc1ccc(/C=C2\SC(=O)NC2=S)o1 | active: 33%
20 | Cc1ccc(OCC(=O)Nc2cccc(-c3nc4ccccc4o3)c2C)cc1C | active: 55%
21 | O=C(c1cc2sccc2n1Cc1ccccc1)N1CCN(Cc2ccc3c(c2)OCO3)CC1 | inactive: 86%
22 | COc1ccc2cc(-c3nc(Cl)c4c5c(sc4n3)CC(C)CC5)c(=O)oc2c1 (stereo unspecified) | active: 77%

Row | SMILES | survival
23 | O=C(Cn1c(=O)n(-c2cccc(Cl)c2)c(=O)c2sc3ccccc3c21)NC1CCCCC1 | inactive: 127%
24 | CNC(=O)C1CCC(Cn2c(=O)c3sccc3n(CC(=O)NCc3ccc(OC)cc3)c2=O)CC1 (stereo unspecified) | inactive: 135%
25 | COc1ccccc1NC(=O)c1c(NC(=O)COc2ccccc2)sc2c1CCCCC2 | inactive: 85%
26 | CN(C)CCN1C(=O)C2C3C=CC(C3)C2C1=O (stereo unspecified) | inactive: 112%
27 | O=C(Cn1ccn(-c2ccc(F)c(F)c2)c(=O)c1=O)NCCc1ccccc1 | inactive: 69%
28 | CN(c1ccccc1C(=O)NCc1ccco1)S(C)(=O)=O | inactive: 89%
29 | Cc1cc(C)cc(NC(=O)c2cc(S(=O)(=O)N3CCC(C)CC3)cn2C)c1 | inactive: 87%
30 | CC(=O)c1cccc(NC(=O)CCc2c(C)nc3c(c(C)nn3-c3ccccc3)c2C)c1 | inactive: 69%
31 | CCCCNc1nc(Oc2ccc(=O)n(C)n2)nc(N2CCOCC2)n1 | inactive: 81%
32 | COc1ccc(NC(=O)c2c(NC(=O)c3ccncc3)sc3c2CCC(C(C)(C)C)C3)cc1 (stereo unspecified) | active: 41%
33 | COc1cccc(Cn2c(=O)n(CCc3ccccc3)c(=O)c3c2c2cc(OC)ccc2n3C)c1 | inactive: 81%
34 | Cc1ccc(Cl)cc1NC(=O)C1CCN(S(=O)(=O)c2cccc3nonc23)CC1 | inactive: 106%
35 | COc1cc(NC(=O)C(Cc2ccccc2)NS(=O)(=O)c2cccc3nsnc23)cc(OC)c1 (stereo unspecified) | inactive: 72%
36 | Cc1cccc(NC(=O)CSc2nc3ccccc3nc2N2CCCCC2)c1C | inactive: 75%
37 | COc1cc2[nH]c(=O)n(CCC(=O)N3CCN(c4ccc(Cl)cc4)CC3)c(=O)c2cc1OC | inactive: 81%
38 | CCn1nc(-c2ccccc2)c(-c2ccccc2)c(C(=O)Nc2ccccc2C#N)c1=O | inactive: 67%
39 | CCS(=O)(=O)N1CCN(Cc2nc3sc4c(c3c(=O)[nH]2)CCC(C(C)(C)C)C4)CC1 (stereo unspecified) | inactive: 104%
40 | O=S(=O)(Cc1ccccc1)NCc1ccco1 | inactive: 54%
41 | Cc1cc(C)c(/C=C/c2onc(C)c2S(=O)(=O)N2CCC(C(=O)NCc3ccccc3Cl)CC2)c(C)c1 | inactive: 89%
42 | CCN(CC)C(=O)N1CCN(C(=O)N(CC)CC)CC1 | inactive: 79%
43 | O=C(CCC1N=C2c3ccccc3N=C(SCc3cccc(Cl)c3)N2C1=O)N1CCN(c2ccccc2)CC1 (stereo unspecified) | active: 47%
44 | CCOc1ccc(-c2cc3c(=O)n(CC(=O)Nc4cc(F)ccc4C)ccn3n2)cc1 | inactive: 81%

Row | SMILES | survival
45 | Cc1cc(C)c2c(=O)cc(C(=O)Nc3c(C)n(C)n(-c4ccccc4)c3=O)oc2c1 | inactive: 65%
46 | COc1ccc(C(=O)c2c(N)c(-c3nc(-c4ccc(OC)cc4)cs3)c3ccccn23)cc1 | inactive: 79%
47 | O=C(CN1C(=O)c2cccnc2Oc2ccc(Cl)cc21)NCCc1ccccc1 | inactive: 95%
48 | Cc1ccccc1OCC(=O)NCCN1CCCC1 | inactive: 96%
49 | COc1ccc(OCC(O)CN(Cc2ccccc2)Cc2ccccc2)cc1 (stereo unspecified) | inactive: 88%
50 | CC(C)(C)C(=O)Cn1c(=O)n(-c2ccccc2)c(=O)c2c3c(sc21)CCC3 | inactive: 80%
51 | Cc1ccc(NC(=O)CN2C(=O)COc3ccc(S(=O)(=O)NC4CCCC4)cc32)cc1Cl | inactive: 69%
52 | Cc1cc(NC(=O)CSc2ncc(C(=O)Nc3ccc(Cl)cc3)c(=O)n2C)no1 | inactive: 71%
53 | CCOC(=O)C1CCN(C(=O)Cn2ncc3c4ccccc4n(Cc4ccc(F)cc4)c3c2=O)CC1 | inactive: 78%
54 | COc1ccc(S(=O)(=O)c2c(O)c3ccc(C(=O)NCc4ccc(Cl)cc4)cc3[nH]c2=O)cc1 | inactive: 89%
55 | Cc1csc2nc(COc3ccc(NC(=O)COc4ccccc4)cc3)cc(=O)n12 | inactive: 104%
56 | CCN(Cc1ccccc1)C(=O)Cn1c(=O)n(-c2cccc(C)c2)c(=O)c2c1c1cc(C)ccc1n2C | inactive: 78%
57 | Cc1ccc2oc3c(c(=O)c2c1)C(c1ccc([N+](=O)[O-])cc1)N(CCCN1CCOCC1)C3=O (stereo unspecified) | inactive: 76%
58 | COc1ccc(-c2nc(SCC(=O)Nc3ccc4c(c3)OCCO4)c(-c3ccc(F)cc3)[nH]2)cc1OC | inactive: 50%
59 | Cc1ccc(CNC(=O)CN(c2cccc(C)c2C)S(=O)(=O)c2ccccc2)cc1 | inactive: 73%
60 | CCC(CC)C(=O)Nc1ccc2nc(SCC(=O)N3CCc4ccccc43)sc2c1 | inactive: 109%
61 | CCOc1ccc(C(=O)Nc2cccc(NC(=O)c3ccc(C(C)(C)C)cc3)c2)cc1Br | inactive: 81%
62 | Cn1c2ccccc2c2cnn(CC(=O)N3CCN(c4cccc(C(F)(F)F)c4)CC3)c(=O)c21 | inactive: 77%
63 | O=C(CSc1nnnn1C1CCCC1)c1ccc2c(c1)OCCO2 | active: 70%
64 | Cc1cccc(N2CCN(S(=O)(=O)c3cc(Cl)ccc3Cl)CC2)c1C | inactive: 146%
65 | CC(=O)c1cccc(NC(=O)C2CCCN(C(=O)c3cnn(-c4ccccc4)c3-n3cccc3)C2)c1 (stereo unspecified) | inactive: 96%
66 | COc1ccc(NC(=O)CN2C(=O)C(c3ccc(C)cc3)=NC23CCCCCC3)cc1Cl | inactive: 96%

Row | SMILES | survival
67 | Cc1ccc(NC(=O)c2ccc(CNS(=O)(=O)c3ccc4c(c3)C(C)(C)C(=O)N4C)cc2)cc1 | inactive: 90%
68 | CN(C)CCNC(=O)C(=O)NCC(c1cccnc1)N1CCN(c2ccccc2)CC1 (stereo unspecified) | active: 54%
69 | COc1cccc(-c2nc(SCC(=O)NCC3CCCO3)c(-c3ccc(Cl)cc3)[nH]2)c1 (stereo unspecified) | inactive: 63%
70 | COc1ccc2c(c1)c(=O)c(S(=O)(=O)c1ccccc1)cn2CC(=O)Nc1ccc2c(c1)OCO2 | inactive: 65%
71 | CCCN(C(=O)Cn1ncc2c([nH]c3ccccc32)c1=O)c1ccc(F)cc1 | inactive: 101%
72 | CC(=O)c1cccc(NC(=O)CCCSc2nc(-c3ccco3)cc(C(F)(F)F)n2)c1 | active: 31%
73 | CCOC(=O)C1CCCN(C(=O)c2ccc3c(c2)N(Cc2ccccc2F)C(=O)c2ccccc2S3=O)C1 (stereo unspecified) | inactive: 86%
74 | COc1ccc(CCNC(=O)CCn2c(=O)c3ccccc3n(CC(=O)Nc3cc(Cl)ccc3C)c2=O)cc1OC | inactive: 75%
75 | CCc1ccccc1NC(=O)Nc1cc(C(=O)NCc2ccccc2OC)ccc1N1CCCC1 | inactive: 87%
76 | O=C(CCn1nc(-c2ccccc2)c2ccccc2c1=O)Nc1cccnc1 | inactive: 105%
77 | Cc1cc(=O)[nH]c(SC(C)C(=O)NC2CCCCC2)n1 (stereo unspecified) | inactive: 77%
78 | O=C(O)C1CC=CCC1C(=O)N1CCCC1 (stereo unspecified) | inactive: 102%
79 | CCc1ccc(NC(=O)CC2C(=O)N(c3ccc(OC)cc3)C(=O)N2Cc2cccs2)cc1 (stereo unspecified) | inactive: 101%
80 | COc1ccc(CC(=O)NCC2OCCc3ccccc32)cc1OC (stereo unspecified) | inactive: 88%
81 | Cc1ccc(C(=O)Nc2ccc3oc(-c4cc(Br)ccc4Cl)nc3c2)cc1 | inactive: 70%
82 | O=C(Nc1cccc(Cl)c1Cl)c1cc(S(=O)(=O)N2CCCc3ccccc32)ccc1F | inactive: 88%
83 | COc1cc(OC)c(N(C)C(=O)CSc2c3c(nc4ccc(Cl)cc24)CCCC3)cc1Cl | active: 33%
84 | COc1ccc(C(=O)Nc2ccc3oc(-c4cc(Cl)ccc4Cl)nc3c2)cc1Br | inactive: 71%
85 | CCOC(=O)c1cnc2c(C)cc(C)cc2c1Nc1ccccc1OCC | active: -1%
86 | Cc1nn2c(-c3ccco3)ccnc2c1-c1ccc(Cl)cc1 | inactive: 94%

— PubChem BioAssay AID463173 (ICCB-Longwood Screening Facility, Harvard Medical School, 2010)
